# Measured values reported in the supplement of paper PMC11417369.
# ± gives the standard deviation of the averaged measurements. The list shows a part of the results.
# System: PfAP2-LT AP2 domain (GST-tagged)
# Assay: gcPBM binding intensity (ln(normalized median fluorescence intensity)); higher = stronger DNA binding
# How it was run: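 Binding intensity is defined as the maximum Masliner-normalised natural-log median intensity across replicate spots for either probe orientation. It was measured on an Agilent 4 × 180k array of primer-extended double-stranded 36-bp intergenic genomic probes and negative controls, to which GST-tagged P. falciparum DNA-binding domains made in E. coli were applied for 1 h in 1× PBS with 1% milk, 0.2 mg/ml BSA, 0.5% salmon testes DNA and 0.03% Triton X-100. Detection was by Alexa488 anti-GST antibody and scanning at 488 nm.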
row,Sequence,gcPBM binding intensity (ln)
1,TATTATGTCTAAAATAACATATTAATATATTATTTC [CACACA_negctrl_site285],8.47 ± 0.52
2,AGAGTTCTCCTATGCACACAAAAAACTTTCATTTAT [CACACA_site4193],8.86 ± 0.37
3,TTAATATTTTATTTCACACACATAAATGCCCCAAAC [CACACA_site1887],9.15 ± 0.49
4,TCCTCTTATAATTCGTGTCCACATATATCATACAAT [XGTACX_site1523],8.85 ± 0.5
5,AAAAAATACATACATACACACATATATATATATATA [CACACA_site913],9.99 ± 0.3
6,ATAAAACAAATGAGTACACACACATAAAAATTGAAA [CACACA_site7949],9.38 ± 0.38
7,TACGGATATATATATTGTACATATATATAATATATA [XGTACX_site3156],8.7 ± 0.38
8,TTTTTTTTTTTTTTTGTGCACAATATAATTTTTAAT [GTGCAC_site9747],8.7 ± 0.4
9,TATATATATATTAATAGTACATATTATGTAAGCCTA [XGTACX_site2826],8.96 ± 0.45
10,TTTCAGACAAAAAAAAAAAAAAAAAAGAGGAGAATA [CACACA_negctrl_site254],8.39 ± 0.47
11,TTATAATATATATCTGCATGTTGCTTTGGGGCTTTA [TGCATGCA_site712],8.81 ± 0.38
12,TATATTAAACAATATACACACATTAATGTAGACATA [CACACA_site8889],8.94 ± 0.37
13,GAAAATTCTTAAGGCACACACATATAAGATATATAC [CACACA_site6410],9.14 ± 0.36
14,AATAAAAAAAAAAAAAAAAAAAAAAACCTGAGGAGT [CACACA_negctrl_site1140],8.56 ± 0.56
15,AACCTTTTAAGAGTTGCACACGTACAAAAAAAAAAA [CACACA_site9159],8.88 ± 0.45
16,TTTAAGCAAAGACACACACACATATTTATATTTATA [CACACA_site6295],9.49 ± 0.28
17,AAACATTTATACAAAGCACACAATTTTTAACTTTTA [CACACA_site2627],8.7 ± 0.42
18,TATCTTCATTGTTGACGTACAGTATTTCTAAACGTT [XGTACX_site3439],8.83 ± 0.44
19,TTTTTTCTTTTTTTTTTTAATTATAAACATGATATT [GTGCAC_negctrl_site144],8.36 ± 0.6
20,TAAATATATATAACATGTACATAAAATATATATATA [XGTACX_site4431],8.86 ± 0.39
21,TACACATACAGACATACACACATACACATATACACA [CACACA_site6918],9.85 ± 0.23
22,AAAAAAAAAAAAAACACACACACACGCACATATACA [CACACA_site7288],10.1 ± 0.3

row,Sequence,gcPBM binding intensity (ln)
1,CTATGAACACACACATGTACATATATTAACTCGCTA [XGTACX_site8805],9.28 ± 0.28
2,CCACTTGTGTAATGTTGTACAAAAATAAATATATTT [XGTACX_site4598],8.72 ± 0.46
3,ATAATTAAAAATAATATATATATAATATGATATTAT [GTGCAC_negctrl_site194],8.45 ± 0.45
4,CGAGCAAGACGGGGTGCACACAAACTAATATGCCGA [CACACA_site7936],9.55 ± 0.5
5,TACCTTTATTAATAAAGTACATTAATCTGTGTATAC [XGTACX_site8720],8.73 ± 0.45
6,ATTATTATGTAGAAGGTGCTATGTTCTATAAATATA [GTGCAC_site9545],8.73 ± 0.51
7,CATAAAAATGAACATACACACATATATATATATATA [CACACA_site2498],9.8 ± 0.17
8,TTGCTTTCTTTTTTTTGTACTCATATCTACTATCAT [XGTACX_site7711],8.96 ± 0.71
9,AGGCCTTTTAGTATTTCACACACGTAAATGCGTATA [CACACA_site1108],9.1 ± 0.33
10,AAAAAAAAAAAAATGTGGACACAATTGTGTGTTTGT [XGTACX_site3563],9.22 ± 0.6
11,TTTTTGTTAAAATAAATATTATAAATATATTAATAT [TGCATGCA_negctrl_site239],8.03 ± 0.47
12,TACATATTTTATAGCACACAAATAATAATATGTAGT [CACACA_site688],8.93 ± 0.33
13,GTTGTGGAAAGAAGTTGTACATAAAATATTATATAA [XGTACX_site4352],8.6 ± 0.49
14,GTATATATCTAAAAATATATATATATATATATATAT [CACACA_negctrl_site788],9.38 ± 0.29
15,ATCGAAGGGGTACAAAATAAAAATAATTCTTTCAAA [TGCATGCA_negctrl_site373],8.55 ± 0.62
16,AAGTGTTATGAAATATGTACACATATATTATATATA [XGTACX_site6022],8.8 ± 0.46
17,TATAAATAAATATGGAGTACCAAAAAAATTATAAAA [XGTACX_site7581],8.6 ± 0.48
18,ATATAACATGGACACACACACATATATATATATTAT [CACACA_site6135],9.88 ± 0.32
19,ATACAAATTAAGCCTCAAGTTCTTTTTTTTAACATA [XGTACX_negctrl_site580],8.48 ± 0.29
20,AAAAAAAAGAATTATTGTACAAAAGAACAATAAATA [XGTACX_site1368],8.73 ± 0.57
21,GTGAAATTATATTTTTGTACATATATTATATATTAT [XGTACX_site3387],8.9 ± 0.49
22,GGTGCACCCATATACACACACAAATACAATGATAAA [CACACA_site1132],9.53 ± 0.52

row,Sequence,gcPBM binding intensity (ln)
1,ATTTAAAATGGTTATACACACATAAAAGGGGAAATG [CACACA_site2649],9.14 ± 0.4
2,ATATATATATATATATGTACATACCCAATTGTGTAA [XGTACX_site6352],9.87 ± 0.24
3,TACAGACATACATACACACATACATATATATATATA [CACACA_site1940],9.82 ± 0.34
4,TTTTTATTAAATAAAGCACACACAACAACTTTTCAC [CACACA_site9372],9.09 ± 0.31
5,AAATATAAAAAAAAAAGTACTTTGTTACTTTTCTAT [XGTACX_site6034],8.33 ± 0.42
6,AAAATAAATATAACCACACACGAAAGAGAGAGAAAA [CACACA_site3272],9.35 ± 0.47
7,TAACCATAAGAAGATTGTACATAATAAAAGTATTCT [XGTACX_site1117],8.77 ± 0.37
8,AACTGCAAAAAAAGACGTACAAATTATTAATTGCAA [XGTACX_site8929],8.88 ± 0.54
9,TATTTATTTATTTAGTGTACATTTATATTTGTTCAT [XGTACX_site7575],8.96 ± 0.47
10,TTCTTTTTTTTTAAAACAAACAAACAAACAAACAAA [CACACA_negctrl_site832],8.12 ± 0.38
11,TTAATCTTTCCTACATGTACACACAGAAAAAAAAAA [XGTACX_site5213],8.69 ± 0.36
12,TATCCATATTTGTTCACACACACACCCATTTATATA [CACACA_site3571],9.69 ± 0.35
13,ATTTTTATGTTGAAAAGTACTTGAATCCCATGTAAC [XGTACX_site4453],8.65 ± 0.36
14,ATACAAAATCTAATTTGTACACAATGTTTGATTTTT [XGTACX_site5438],8.79 ± 0.39
15,AATATAAATAAAAAATTGATTTCTTTAAAAAGGTAT [CACACA_negctrl_site1038],8.55 ± 0.47
16,TTGTTCTTTCAAATTATACACACCAAAAAAAAAAAA [CACACA_site3070],8.44 ± 0.43
17,TACAAATGAGAAATATGTACATAAAAAAAAAAAAAT [XGTACX_site801],8.99 ± 0.61
18,TAATCATAAAAAAATACACACATATATAATATATAT [CACACA_site1983],8.97 ± 0.35
19,AAATATTACTACACTACATGCAGTTTTAGGTACACT [TGCATGCA_site42],8.97 ± 0.4
20,AAAAACAAAATATAATGTACACAATATATGTATATA [XGTACX_site2301],8.9 ± 0.61
21,AATAAACATAAATACACACACAAAAAAAAAAACATA [CACACA_site4396],9.64 ± 0.33
22,TTTTTTTTTTTTTGATGTACTAAAAAAAATGAGCCT [XGTACX_site8535],8.21 ± 0.4

row,Sequence,gcPBM binding intensity (ln)
1,GATATTAAAATATGTAGTACACATATTATATCATAT [XGTACX_site4167],8.83 ± 0.27
2,TTAAAAATTATGGATACACACATATATATATATATT [CACACA_site2383],8.96 ± 0.35
3,ATAGTTCCTTTTAATACACACAAAAAAAAAAACATG [CACACA_site3415],8.77 ± 0.38
4,TATAGGTAAATGGACACACACATATTTATATTTATA [CACACA_site7683],9.23 ± 0.42
5,TGTAGTCTGGAGAAGAGTACATAGTATCTGGTAACA [XGTACX_site4944],8.71 ± 0.62
6,TTATTAGGTGTATAATGTACATATAATATATATATA [XGTACX_site3398],8.8 ± 0.47
7,TAATGTTTTTATATCACACACAAATATTAAATGATT [CACACA_site543],8.95 ± 0.4
8,TATAATATAAGGATCACACACAAACAGACATATATA [CACACA_site557],9.49 ± 0.37
9,ATAGAAGCATCACACTGTACATGGATGAACAGAAAA [XGTACX_site7311],9.1 ± 0.48
10,ATATATATAATGTGAAGTACATTTTGTTTACATATT [XGTACX_site8405],8.79 ± 0.44
11,TATATATATACATACATACACACATATATATATATA [CACACA_site4109],9.535 ± 0.064
12,ATAATTTCTTTTACATGTACAAAATTTGCTTATATG [XGTACX_site5388],8.93 ± 0.46
13,GGATTATTTATAGGAGTGCATACATATATATATATA [GTGCAC_site9454],9.61 ± 0.45
14,TTTATTAAATAATCTCTTTTTATTACATAATAATAA [XGTACX_negctrl_site382],8.1 ± 0.45
15,TTTACACTTTCCAATAGTACATATTAGAATAATTCT [XGTACX_site7734],8.47 ± 0.34
16,TAATTTATGGAATATGTGCACTTGCTGATCACTTTT [GTGCAC_site9843],8.93 ± 0.45
17,AATTTAATCCGTAATAAGAAAAGAAAAAAAAAAAGA [GTGCAC_negctrl_site129],8.49 ± 0.49
18,ATTAGCTACAAACAAAGGCTACCTATAGCAAGAGGG [GTGCAC_negctrl_site33],9.12 ± 0.42
19,CCAATACATAGAAACTGTACATTATGCATTATACAC [XGTACX_site3531],8.92 ± 0.37
20,AATATCTAAATAAAGTGTACTTACCTTATTAATTAT [XGTACX_site2276],8.6 ± 0.49
21,ATTTTCCTATTTAGTAGTACTTTTTTCTTTTTTTAA [XGTACX_site5260],8.72 ± 0.55
22,TTATATTTCACAAATGTGCACAGATACATATATATA,8.86 ± 0.46
